The full ranking holds about 33,000 sequences; the median of “E-score (-0.5 to 0.5)” is about -0.021, and the highest 2% start at about 0.32. The list shows a part of the results.

This test deals with T1, Zap1 (UniProt P47043).
T1 sequence: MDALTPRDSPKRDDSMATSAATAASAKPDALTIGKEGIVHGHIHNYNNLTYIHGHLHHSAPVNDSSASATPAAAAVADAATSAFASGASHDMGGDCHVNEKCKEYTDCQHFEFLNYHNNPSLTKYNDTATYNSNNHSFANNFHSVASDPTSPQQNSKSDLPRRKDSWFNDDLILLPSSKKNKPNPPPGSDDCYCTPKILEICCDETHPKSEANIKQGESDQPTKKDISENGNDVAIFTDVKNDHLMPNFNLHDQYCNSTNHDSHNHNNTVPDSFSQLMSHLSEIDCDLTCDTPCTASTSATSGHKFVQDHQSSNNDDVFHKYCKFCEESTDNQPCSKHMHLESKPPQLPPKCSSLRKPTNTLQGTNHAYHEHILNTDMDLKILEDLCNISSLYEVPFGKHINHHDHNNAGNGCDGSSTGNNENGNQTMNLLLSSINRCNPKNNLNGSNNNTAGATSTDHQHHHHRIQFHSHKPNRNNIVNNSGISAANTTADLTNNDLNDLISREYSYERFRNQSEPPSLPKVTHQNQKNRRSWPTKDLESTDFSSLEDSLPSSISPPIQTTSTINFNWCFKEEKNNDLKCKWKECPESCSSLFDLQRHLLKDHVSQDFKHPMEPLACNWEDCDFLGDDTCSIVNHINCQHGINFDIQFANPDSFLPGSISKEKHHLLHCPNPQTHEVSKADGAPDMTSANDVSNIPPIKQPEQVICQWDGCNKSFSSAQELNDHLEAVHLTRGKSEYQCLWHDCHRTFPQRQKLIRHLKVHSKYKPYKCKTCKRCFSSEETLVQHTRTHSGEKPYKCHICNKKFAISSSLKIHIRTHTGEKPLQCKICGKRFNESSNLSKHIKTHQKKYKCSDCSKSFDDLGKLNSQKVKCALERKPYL
The experiment in a line: PBM E-score (8-mer binding enrichment) (E-score (-0.5 to 0.5)); higher = stronger / more preferred TF binding; most listed sequences are background and not binding sites. The following applies: protein concentration: 200 nM; construct: GST-full length. In outline: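 GST-tagged yeast TFs (full-length or DNA-binding domain) were made by PURExpress in vitro transcription/translation and applied at about 100-200 nM to universal all-10-mer Agilent arrays. The arrays were made double-stranded by primer extension, on fresh or once-stripped slides. Bound protein was detected with fluorescent anti-GST, and scans were normalised with masliner. Each ungapped eight-base word, pooled with its reverse complement, received an E-score (modified Wilcoxon-Mann-Whitney statistic) from the Universal PBM Analysis Suite.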
In the case of GTCTTGCA, the “PBM E-score” value was -0.05.

Consider GCATCACA, for which the “PBM E-score” value was -0.121.

Take AGCTCGCC: the “PBM E-score” value is -0.186.

Take GCATCGAA: the “PBM E-score” value is -0.205.

Consider AATCTACT, for which the “PBM E-score” value was determined as 0.118.

On to CTGCGGGA, for which the “PBM E-score” value is -0.242.

In the case of ATTCGTGG, the “PBM E-score” value came to 0.0814.

For the sequence GCCTACAC, the “PBM E-score” value worked out at 0.0348.

On to CGAAACAG, for which the “PBM E-score” value is -0.0571.

In the case of TGCGTGAA, the “PBM E-score” value came to 0.0192.

On to GCTACCAC, for which the “PBM E-score” value was 0.107.

As for CAGCTGTC, the “PBM E-score” value is 0.0518.

In the case of AGGTGCAT, the “PBM E-score” value is -0.0526.

Turning to AACACCGA, the “PBM E-score” value came out at 0.053.

Consider AAGGGGTA, for which the “PBM E-score” value came to 0.334.

Regarding AGACATGC, the “PBM E-score” value is -0.215.

AACTCTCC: the “PBM E-score” value was -0.175.

CGACTACG: the “PBM E-score” value was -0.135.

In the case of CTGATACA, the “PBM E-score” value was -0.0472.

With CGCAGATC, the “PBM E-score” value is -0.115.

With AAACTCAT, the “PBM E-score” value was found to be 0.00451.

Turning to AGCCACAC, the “PBM E-score” value was -0.00197.

Regarding TAAACTCA, the “PBM E-score” value was 0.00603.

On to CGGCGCCG, for which the “PBM E-score” value is -0.00397.

As to CGAGTCAA, the “PBM E-score” value was -0.118.

Take CTAGACTC: the “PBM E-score” value is -0.231.

As to ATGCATGA, the “PBM E-score” value was -0.0209.

Take AAGCCTAA: the “PBM E-score” value was 0.0918.

On to ATACCGTC, for which the “PBM E-score” value came out at 0.142.

As to CAATTGTG, the “PBM E-score” value came out at 0.0921.

As for CATGAGCA, the “PBM E-score” value is -0.148.

AAGTCTCC: the “PBM E-score” value was -0.348.

Take AAGTCATT: the “PBM E-score” value is -0.224.

CAATGAGC: the “PBM E-score” value is -0.126.

For TATAAAAA, the “PBM E-score” value was found to be 0.312.

For AGAGGTAG, the “PBM E-score” value came to 0.141.

Take CGGCGTCC: the “PBM E-score” value is -0.0162.

In the case of AGTCGCCC, the “PBM E-score” value was -0.181.

ACCGCTAC: the “PBM E-score” value was found to be 0.161.

As for CGAGCCCA, the “PBM E-score” value is -0.0447.

As for CTCGAGAA, the “PBM E-score” value stood at 0.1.

For AGTAGTTA, the “PBM E-score” value is 0.11.

GTAAAACA: the “PBM E-score” value turned out to be 0.0857.

Regarding AGTCGGAT, the “PBM E-score” value was -0.141.

Turning to CGCTATGA, the “PBM E-score” value is -0.0837.

Regarding ATGCTAGG, the “PBM E-score” value was -0.159.

Consider GCTGGTAA, for which the “PBM E-score” value is -0.114.

As to CGGCATCA, the “PBM E-score” value was -0.166.

For the sequence CGTAATGA, the “PBM E-score” value is -0.0487.

On to ATAAGGAT, for which the “PBM E-score” value was found to be 0.137.

Turning to ACAGCTTA, the “PBM E-score” value was -0.0516.

On to CTTGAAGA, for which the “PBM E-score” value is -0.0672.

On to ACTATACA, for which the “PBM E-score” value is -0.0207.

Take CGAGGGTA: the “PBM E-score” value turned out to be 0.371.

Consider TAATATGA, for which the “PBM E-score” value came out at 0.151.

TGATCCAA: the “PBM E-score” value is 0.0739.

Regarding ATTGCGTA, the “PBM E-score” value is -0.0693.

Turning to AAGTGGCC, the “PBM E-score” value turned out to be 0.0931.

For the sequence AAGTACTA, the “PBM E-score” value was 0.0859.

For AATGACGT, the “PBM E-score” value was -0.0682.

As to CATCCGCG, the “PBM E-score” value was -0.0398.

ATAGCTAT: the “PBM E-score” value was -0.0468.

On to ACTTTGAC, for which the “PBM E-score” value is -0.0229.

On to ATGAAGCA, for which the “PBM E-score” value worked out at 0.02.

GATTCCTA: the “PBM E-score” value amounted to 0.0308.

On to AACCCAAC, for which the “PBM E-score” value was 0.282.

As to ACTAGAAA, the “PBM E-score” value was 0.169.

In the case of TAGTCCCA, the “PBM E-score” value was -0.147.

As for AGCGCATG, the “PBM E-score” value is -0.227.

In the case of CATTAGCG, the “PBM E-score” value was 0.0314.

Consider ATGCTCAG, for which the “PBM E-score” value is 0.00395.

For AGCAGAAA, the “PBM E-score” value came to 0.163.

Consider AGAGATGA, for which the “PBM E-score” value is -0.151.

For the sequence CTCAATAC, the “PBM E-score” value stood at 0.172.

Turning to GTTCATGA, the “PBM E-score” value came out at 0.127.

For GGTCAACA, the “PBM E-score” value amounted to 0.211.

With CATTTTGC, the “PBM E-score” value is -0.0493.

Regarding CATCAACC, the “PBM E-score” value turned out to be 0.168.

With AACCAGCG, the “PBM E-score” value came out at 0.205.

Turning to AGGGATAC, the “PBM E-score” value is 0.163.

In the case of CCTTTTCC, the “PBM E-score” value is 0.0501.

For GTTGCTGA, the “PBM E-score” value was found to be 0.0285.

Regarding ACAAACAC, the “PBM E-score” value is 0.14.

For GGAGATGA, the “PBM E-score” value was -0.13.

Regarding CGCTACCA, the “PBM E-score” value is 0.11.

With AAACGAAC, the “PBM E-score” value came out at 0.129.

The values are drawn from the supplement of paper PMC3334620.
